Results reported in PubChem BioAssay (Tox21).
“And” between values parts separate entries of the source, which are not always exact repeats. Equal entries are not always repeated. This list was built around the results that the source calls inconclusive (neither active nor inactive); the mix of calls is not that of the screen. Entries that show only a call come without a potency. For some assays here: Potencies of inconclusive entries are doubtful fits and often do not repeat. The source made the active and inactive calls. Calls come from the whole dose curve; as a rule, active = well fitted curve in the direction sought with a large enough effect in the repeat runs; inconclusive = weak or mixed curves; inactive = no such curve, though single readings can be large; an effect the other way counts as inactive or inconclusive.

Key:
[1] = A CellTox Green Cytotoxicity Assay to monitor cytotoxicity in HepG2 cells - 8 hour (AID 1224890); note: nearly all actives have a fitted effect of over 45% in size
Outline: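 First, HepG2 cells (600/well) mixed with reagent were plated; second, after 5 h at 37 C they received compounds via pintool; third, fluorescence was measured at 0 h through 40 h at 8 h intervals.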

[2] = qHTS RealTime-Glo MT Cell Viability Assay in HepG2 cells - 0 hour (AID 1224889); note: nearly all actives have a fitted effect of over 50% in size; note: potency is the fitted concentration of half-maximal effect
Outline: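 HepG2 suspension premixed with RealTime-Glo reagents is plated at 600 cells per well and left 5 h at 37 C/5% CO2. Compounds in DMSO then go in, and bioluminescence reflecting viable cell number is recorded over 40 h.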

[3] = qHTS assay to identify small molecule antagonists of the estrogen receptor alpha (ER-alpha) signaling pathway using the BG1 cell line in the presence of 0.1 nM 17-beta-estradiol - cell viability counter screen (AID 1259241); note: nearly all actives have a fitted effect of over 40% in size; note: potency is the fitted concentration of half-maximal effect
Outline: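 Estradiol-stimulated (0.1 nM) VM7Luc4E2 cells exposed to compounds 22 hr; viability measured by fluorescence of cleaved CellTiter-Fluor substrate after 30 min.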
Tags give direction and shape of the fitted curve.

c1ccc2cc3c(ccc4ccccc43)cc2c1
Potency [1]: inactive

O=[N+]([O-])c1cc(N(CCO)CCO)ccc1NCCO
Potency [2]: inconclusive: 54.8 µM [cytotoxic, single point]
Potency [3]: inconclusive: 27.3 µM [cytotoxic]

OCCOCCOCCOCCOCCO
Potency [1]: inactive

CCN(CC)c1ccc(C(=C2C=CC(=[N+](CC)CC)C=C2)c2cc(S(=O)(=O)O)ccc2S(=O)(=O)[O-])cc1
Potency [3]: inconclusive: 29.8 µM [cytotoxic, partial curve, poor fit]

CC1=C(Br)C(=O)C(Br)=C/C1=C(/c1ccccc1S(=O)(=O)O)c1cc(Br)c(O)c(Br)c1C
Potency [2]: active: 16.7 µM
Potency [3]: active: 18.6 µM

Cc1cccc(C(=O)O)c1
Potency [3]: inactive

O=c1[nH]c(=O)n([C@H]2CCCO2)cc1F
Potency [2]: inconclusive: 61.6 µM [cytotoxic, partial curve, poor fit]

O=C(O)C1CCC(C(=O)O)CC1 (configuration not stated)
Potency [3]: inactive

Fc1ccccc1
Potency [3]: inactive

Cc1c(N)cccc1N
Potency [1]: inactive

CCC=CC#N
Potency [3]: inactive

CCOCCOCCO
Potency [1]: inactive

C[C@]12C=CC(=O)C=C1CC[C@@H]1[C@@H]2C(=O)C[C@@]2(C)[C@H]1CC[C@]2(O)C(=O)CO
Potency [2]: active: 22 µM and active: 17.4 µM and inconclusive: 15.1 µM [cytotoxic, partial curve]

CCCCCCCCCC=O
Potency [2]: inactive

Cc1cccc(O)c1N
Potency [3]: active: 61.8 µM
